# Assay results as given in patent publication US8501241B1, “Treating cancer with a whole, leech saliva extract” (priority 2012, dated 2013).
# Tested on: human small cell lung cancer (SW1271 cell line)
# Assay: […]-GLO luminescent cell viability assay
# Type: cell-based
Structure (SMILES),"IC50 (Homo sapiens, SW1271, 120 h) [µg/mL]",decline in IC50 value of carboplatin (in combination with LSE vs carboplatin alone) [%],"IC50 (positive controls alone, 5 days incubation) [µg/mL]"
"CCc1c2c(nc3ccc(OC(=O)N4CCC(N5CCCCC5)CC4)cc13)-c1cc3c(c(=O)n1C2)COC(=O)[C@]3(O)CC [irinotecan, Irinotecan hydrochloride]",5.81,,
"N.N.O=C([O-])C1(C(=O)[O-])CCC1.[Pt+2] [carboplatin, cis-Diamine [1,1-cyclobutanedicarboxylato]platinum II]",,65,18.754

# Structures can show the parent of a compound that is named as a salt.
